From ChEMBL document CHEMBL4888484, “Replenishing the malaria drug discovery pipeline: Screening and hit evaluation of the MMV Hit Generation Library 1 (HGL1) against asexual blood stage Plasmodium falciparum ,using a nano luciferase reporter read-out” (2022) come the findings set out here.

The test concerns Plasmodium falciparum. The experiment in a line: Primary screen in NF54 nanoGlo assay, in single point, at 2uM, 72h; a lower Z score goes with more inhibition. The test is classed as functional, Erythrocyte. The conditions noted are these: timepoint 72 hour.

Several values for one entry are separate records, joined by “and”; a condition that tells them apart may be missing. Identical values can stand only once. In all, about 150,000 compounds went through this assay and about 540 (0.36%) showed an effect of 50% or more. The list shows a part of the results.

What is called % Inhibition is the change of the read-out against control, counted positive when it falls. On to `COC(=O)[C@H](C)c1c(C)nn(Cc2noc(C(C)C)n2)c1C`, for which the “% Inhibition” value is on record as 0% and the Z score turned out to be 0.07.

Turning to `O=C(Cn1cnc(-c2noc(-c3ccccc3)n2)c1)NCc1ccccc1Cl`, the “% Inhibition” value is -12% and the Z score came to 2.21.

`CCNc1nc(C)c(C(=O)N[C@@H](CC)c2ccc(C)cn2)s1`: the “% Inhibition” value was -14% and the Z score was 1.81.

As for `O=C(N[C@@H]1CC[C@H]2CCOc3ccccc3C(=O)N3CCN(CC4CC4)C[C@H]3C(=O)NC[C@H]1O2)C1CCOCC1`, the “% Inhibition” value was 0% and the Z score is recorded as -0.01.

In the case of `CCCN(CCC)C(=O)c1cnn(C)c1`, the “% Inhibition” value is -14% and the Z score worked out at 1.49.

`COC(=O)c1c(C)cccc1S(=O)(=O)Nc1ccc2oc(C3CC3)nc2c1`: the “% Inhibition” value is listed as -4% and the Z score was 0.69.

In the case of `O=C1C[C@H](c2ccccc2)c2sc(N3CCCCC3)nc2N1`, for the setting “2 µM”, the “% Inhibition” value is -8% and -4%; the Z score is 1.05 and 0.52.

Consider `NC(=O)CN1CC=C(C(F)(F)F)CC1`, for which the “% Inhibition” value is reported as -5% and the Z score stood at 0.74.

On to `O=C(Nc1ccc2snnc2c1)NC1CCCCC1`, for which the “% Inhibition” value is reported as -7% and the Z score was found to be 0.94.

Regarding `Cc1n[nH]c([C@@H]2CN(C(=O)c3cccn3C)CCCN2C(=O)c2ccccc2)n1`, the “% Inhibition” value is reported as -8% and the Z score amounted to 1.46.

With `NC[C@H](C(=O)NCc1cncc(O)c1)C1CCCCCC1`, the “% Inhibition” value is reported as -12% and the Z score is reported as 2.18.

As for `O=C(NCc1ccco1)N[C@@H]1COCC[C@@H]1OCC1CC1`, the “% Inhibition” value is on record as -15% and the Z score stood at 1.32.

`O=C(NC1CC1)C1(F)CCN(S(=O)(=O)c2cccc(F)c2)CC1`: the “% Inhibition” value was -19% and the Z score turned out to be 2.51.

For `COc1ccnc(NC(=O)OCC(F)(F)F)c1`, the “% Inhibition” value is given as -7% and the Z score is given as 0.98.

Regarding `CC[C@@]1(C)COCCN1CCN1CCCCC1`, the “% Inhibition” value came out at 3% and the Z score is -0.34.

Consider `Cc1nc(C)c(C(=O)N[C@H]2CCCc3occc32)s1`, for which the “% Inhibition” value was determined as 1% and the Z score was -0.25.

For `COCc1ccc(C(=O)N2CC[C@H](CO)C[C@@H]2C)o1`, the “% Inhibition” value is reported as -7% and the Z score was found to be 0.79.

On to `Cc1ccc2c(c1)cc(CN(C)Cc1nc(C)c[nH]1)n2C`, for which the “% Inhibition” value is -12% and the Z score was 1.17.

As to `O=C1COCC(CC2CN(c3ncc(Cl)cn3)c3ccccc32)N1` (stereo unspecified), the “% Inhibition” value was -4% and the Z score turned out to be 0.84.

On to `O=C(c1ccncc1)N1C[C@H]2CC[C@@H](C1)N(C(=O)C1CCCCCC1)C2`, for which the “% Inhibition” value is on record as -3% and the Z score was 0.5.

In the case of `CCCc1nc(C)cc(N2C[C@H]3CC[C@@H](C2)N(CC(=O)N(C)C)C3=O)n1`, the “% Inhibition” value is listed as -10% and the Z score stood at 0.94.

For `CCN(CC)c1ccc2nnc(CCC(=O)Nc3ccc4c(c3)OCCO4)n2n1`, the “% Inhibition” value was -16% and the Z score is 2.88.

`Cc1ccc(-n2nc(C3CC3)nc2[C@H](O)c2ccccc2)cc1C`: the “% Inhibition” value was determined as 4% and the Z score was -0.53.

For the compound `Cc1cc(CNCc2cc(Br)ccc2F)on1`, the “% Inhibition” value is -5% and the Z score was 0.9.

As for `COc1ccccc1CN(C[C@H](O)COC(C)(C)C)C(C)C`, the “% Inhibition” value is recorded as -6% and the Z score was found to be 1.04.

For the compound `C[C@@H](CC(=O)NS(=O)(=O)c1cccc2c1N=S=N2)C1CC1`, the “% Inhibition” value is recorded as -5% and the Z score is reported as 0.59.

Regarding `O=C(NCc1ccncc1)C1Cc2cc(C(F)(F)F)ccc2N2CCN(Cc3ccc(F)cc3)CC12` (stereo unspecified), the “% Inhibition” value was -4% and the Z score is recorded as 0.58.

With `COc1ccccc1C1CN2C(=O)N(c3ccc(Cl)cc3Cl)C(=O)[C@]2(C)c2[nH]c3ccccc3c21` (stereo partly specified), the “% Inhibition” value is recorded as -13% and the Z score is 1.68.

Regarding `O=C(N[C@H](c1cccs1)C1CCOCC1)c1ccc(Oc2nccs2)cc1`, the “% Inhibition” value was -15% and the Z score is reported as 2.22.

For the compound `O=C(NCCNC(=O)C1(c2ccc(F)cc2)CCC1)c1cnccn1`, the “% Inhibition” value stood at 2% and the Z score was -0.34.

As to `C[C@H](NCC1(N(C)C)CCOCC1)C(F)(F)c1ccccc1`, the “% Inhibition” value is -8% and the Z score worked out at 0.96.

With `Nc1cccc2c1NC(c1ccc(Cl)cc1)C1CCCC21` (stereo unspecified), the “% Inhibition” value is recorded as -4% and the Z score is 0.51.

Regarding `O=C(c1ccc(Cl)c(F)c1)N1C[C@@H](CN2CCCCC2)[C@@H](CO)C1`, the “% Inhibition” value was 5% and the Z score was -0.81.

With `O=C(Nc1ccc(F)cn1)N1CCN([C@@H](CO)c2ccc(Cl)cc2)CC1`, the “% Inhibition” value is on record as -7% and the Z score was 1.4.

With `Cc1nc(C)c(C(=O)N[C@@H](CC(C)C)c2nc(-c3nnc[nH]3)no2)o1`, the “% Inhibition” value amounted to 12% and the Z score is -1.34.

`c1csc(CCN2CCc3nn[nH]c3C2)c1`: the “% Inhibition” value was 1% and the Z score is -0.2.

Take `CC(C)[C@H](CCO)Nc1cccc(F)c1C#N`: the “% Inhibition” value was determined as 1% and the Z score is given as -0.25.

In the case of `Cc1noc(C)c1C(=O)N[C@H](c1ccccc1)c1cc2ccccc2o1`, the “% Inhibition” value is 3% and the Z score is given as -0.57.

Take `CN(CCC#N)S(=O)(=O)N1CC[C@H](Cc2ccncc2)C1`: the “% Inhibition” value is reported as -5% and the Z score is listed as 0.57.

`Cc1cc(Cl)ccc1NC(=O)Cc1nnc(-c2cnccn2)o1`: the “% Inhibition” value is on record as -15% and the Z score worked out at 1.5.

For the compound `Cc1cc(C)c(S(=O)(=O)N2CC[C@H](n3cccn3)C2)s1`, the “% Inhibition” value is listed as -1% and the Z score is on record as 0.1.

`COc1cc(OC)c(OC)cc1CN1CC(=O)N(C)C2(CCOCC2)C1`: the “% Inhibition” value is listed as -4% and the Z score was 0.6.

For the compound `O=C(NCc1cccs1)N1CCN(c2cnsn2)CC1`, the “% Inhibition” value was -8% and the Z score was found to be 0.98.
